In PubChem BioAssay AID686978 (National Center for Advancing Translational Sciences (NCATS), 2013):
Where “and” joins values, the source holds several entries; their conditions need not be identical. Equal values may be shown once. In all, about 420,000 compounds went through this assay and about 64,000 (15%) were called active. This list was built around the results that the source calls inconclusive (neither active nor inactive); the mix of calls is not that of the screen. Calls follow the shape of the dose curve; as a rule, active = well fitted inhibition curve with a large enough effect; inconclusive = small, poorly fitted or top-dose-only effect; inactive = flat fitted curve, though single readings scatter. Potencies beside an inconclusive call are fits to weak or partial responses and may not hold up.
% is scaled to controls: 0 for no effect and ±100 for the full control effect; potency is read from the fitted curve at half-maximal effect; tags tell the direction and shape of the fitted curve.

Test: qHTS for Inhibitors of human tyrosyl-DNA phosphodiesterase 1 (TDP1): qHTS in cells in absence of CPT; also: nearly all actives have a fitted effect of over 55% in size
Details: DT40 Tdp1-/- hTDP1 cells, no CPT, ATP luminescence, 48 h; activity change, negative = growth inhibition: at 46.2 µM (top of the series)
Outline: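 Stably hTDP1-transfected Tdp1-null chicken DT40 cells were treated with library compounds minus camptothecin and grown for at least 48 hr at 37 °C, after which cellular ATP was quantified by luminescence.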
In the case of `COc1ccc(S(=O)(=O)Nc2cc3c(cc2N2CCOCC2)n(C)c(=O)n3C)cc1`, the Potency is reported as inconclusive: 16.4 µM [inhibitor, single point]. With `CCOC(=O)c1cn(CC)c2cc(N3CCSCC3)c(F)cc2c1=O` the “activity change, negative = growth inhibition” value was inactive: -9.26%. With `Nc1nnc(SCC(=O)Nc2ccc(N3CCOCC3)c(Cl)c2)s1` the Potency was active: 11.6 µM. With `COc1ccc(Cn2nnnc2C(c2ccc(F)cc2)N2CCN(C3CCCC3)CC2)cc1` (stereo unspecified) the Potency was inconclusive: 14.6 µM [inhibitor, partial curve, poor fit]. With `COc1ccc(CCNC(=O)C2CC(c3cc(C(F)(F)F)cc(C(F)(F)F)c3)=NO2)cc1` (stereo unspecified) the Potency was inconclusive: 29.1 µM [inhibitor, single point]. With `Cc1ccc(C(=O)/C=C/NCc2ccc(F)cc2)cc1` the “activity change, negative = growth inhibition” value was inactive: -34.8%. With `O=C(CCn1c(=O)c2cccn2c2cccnc21)NCc1ccccc1F` the “activity change, negative = growth inhibition” value was inactive: -26.1%. For `COc1cccc(NC(=O)c2ccc3[nH]c(C)cc(=O)c3c2)c1`, the Potency was inconclusive: 29.1 µM [inhibitor, single point]. With `COc1ccc2c(c1)C(CC(C)=O)N(c1ccc(-c3cccnc3)cc1)C(c1ccsc1)=C2` (stereo unspecified) the Potency was inconclusive: 29.1 µM [inhibitor, single point]. With `Cc1ccc(CN2C(=O)CC(Nc3ccc(N4CCOCC4)cc3)C2=O)cc1` (stereo unspecified) the Potency was inconclusive: 18.4 µM [inhibitor, single point]. For `CCCc1cc(=O)oc2cc(C)c3c(C(C)(C)C)coc3c12`, the Potency was inconclusive: 29.1 µM [inhibitor, single point]. For `COc1ccc(-n2nnnc2SCC(=O)Nc2ccc3c(c2)OCCO3)c(OC)c1`, the Potency was active: 23.1 µM. With `O=C(CN(CCc1ccccc1)S(=O)(=O)c1ccc(Cl)cc1)N/N=C/c1ccccc1C(=O)O` the “activity change, negative = growth inhibition” value was inactive: 8.44%. With `CC(C)C(=O)NNc1ccc(C(F)(F)F)cn1` the Potency was inconclusive: 0.259 µM [inhibitor, full curve, poor fit]. For `CSc1nc(O)c(C(c2ccc(OC(C)C)cc2)c2c(O)nc(SC)[nH]c2=O)c(=O)[nH]1`, the Potency was inconclusive: 29.1 µM [inhibitor, single point]. In the case of `Fc1ccccc1Cn1c2[n+](c3ccc(C(F)(F)F)cc31)CCCCC2`, the Potency is reported as inconclusive: 23.1 µM [inhibitor, single point]. With `Cc1cccc2cc(CN(C(=O)c3ccc(-c4ccc(F)cc4)cc3)C3CC3)c(N3CCC(O)CC3)nc12` the Potency was active: 23.1 µM. With `CCOc1ccc(CCNC(=O)CSc2nn(-c3ccc(C)c(Cl)c3)c(=S)s2)cc1OCC` the Potency was inconclusive: 23.1 µM [inhibitor, partial curve, poor fit]. For `O=C(Nc1cccc(F)c1)NC1CCN(Cc2ccccc2)CC1`, the Potency was inconclusive: 13 µM [inhibitor, partial curve]. In the case of `O=C(Nc1cccc(Cl)c1Cl)C1CCCC1`, the “activity change, negative = growth inhibition” value is reported as inactive: -6.74%. For `Cc1cc(F)ccc1-c1cc(C(=O)NCc2ccco2)[nH]n1`, the “activity change, negative = growth inhibition” value was inactive: -10.2%. In the case of `COc1ccccc1NS(=O)(=O)c1cccc(NC(=O)Cc2cccs2)c1`, the Potency is reported as active: 25.9 µM. With `Cc1ccc(S(=O)(=O)N2[C@H](CC(=O)c3ccc(F)cc3)OC[C@@H]2C(C)C)cc1` the Potency was inconclusive: 18.4 µM [inhibitor, single point]. In the case of `Cc1ccc(O)c(-c2cc(C(=O)NCc3ccncc3)[nH]n2)c1`, the Potency is reported as inconclusive: 18.4 µM [inhibitor, single point]. For `COc1cccc(CCc2nnc(N)s2)c1`, the “activity change, negative = growth inhibition” value was inactive: 6.57%. With `CC1CCN(C(=O)C2CCN(c3ncnc4c3nc3n4CCCCC3)CC2)CC1` the Potency was active: 23.1 µM. In the case of `CCCCN1CC[C@H]2C=CC[C@@H](C(=O)Nc3ccc(Cl)cc3Cl)[C@H]2C1=O`, the Potency is reported as inconclusive: 17.8 µM [inhibitor, single point] and inconclusive: 29.1 µM [inhibitor, single point]. With `COc1ccccc1CC(=O)NNS(=O)(=O)c1cccc([N+](=O)[O-])c1` the “activity change, negative = growth inhibition” value was inactive: -0.708%. With `COC(=O)c1ccc(Cn2nc(-c3ccc(C)cc3)ccc2=O)cc1` the Potency was inconclusive: 29.1 µM [inhibitor, single point]. For `Cc1ccc(NC(=O)C2CCCN2S(=O)(=O)c2ccc(-c3ccc(=O)[nH]n3)s2)c(C)c1` (stereo unspecified), the “activity change, negative = growth inhibition” value was inactive: -20.7%. With `CCc1sc(C(=O)Nc2ncccc2C)cc1C` the “activity change, negative = growth inhibition” value was inactive: 5.66%. With `O=C(COc1ccc(Cl)cc1)NNC(=S)NCc1ccccc1` the Potency was inconclusive: 29.1 µM [inhibitor, single point]. With `CCN(CC)S(=O)(=O)c1ccc(/C=C/C(=O)Nc2cccc(F)c2)cc1` the Potency was active: 20.6 µM. With `CCOC(=O)c1c(C)c(-c2ccccc2)n(CC(=O)NCCC(C)C)c1C` the Potency was active: 10.3 µM. With `CCOc1ccc(S(=O)(=O)N2CCC(C(=O)NCC3CCCO3)CC2)cc1Cl` (stereo unspecified) the “activity change, negative = growth inhibition” value was inactive: -25.5%. With `COc1ccc2[nH]cc(CCNc3nc(-c4c(C)noc4C)nc4ccccc34)c2c1` the Potency was inconclusive: 29.1 µM [inhibitor, single point]. For `Cc1[nH]n(-c2ccccc2)c(=O)c1/C=C1/C=c2ccccc2=N1`, the Potency was active: 20.6 µM. With `CCOc1ccccc1NC(=O)NNC(=O)CCc1ccc(OC)cc1` the “activity change, negative = growth inhibition” value was inactive: 10.2%. With `Cn1c(SCc2ccccc2Cl)nc2c([nH]c3ccccc32)c1=O` the “activity change, negative = growth inhibition” value was inactive: -20.7%. For `CCc1ccc(-c2cc(C(F)(F)F)n3nc(C(=O)Nc4c(C)nn(Cc5ccccc5Cl)c4C)cc3n2)s1`, the Potency was inconclusive: 18.4 µM [inhibitor, single point]. For `O=c1c(-c2nnc(SCc3ccc(Cl)c(Cl)c3)o2)cccn1Cc1ccccc1`, the Potency was active: 20.6 µM. With `Cc1nc2c(OCc3cccc(Cl)c3)cccn2c1N(C)CC1CC1` the Potency was active: 20.6 µM. For `Cc1ccc2cc3c(NC(=O)c4cccnc4)nn(C)c3nc2c1`, the Potency was active: 13 µM. For `O=c1cc(-c2ccccc2)nc(N2CCN(Cc3ccc4c(c3)OCO4)CC2)[nH]1`, the Potency was inconclusive: 0.651 µM [inhibitor, full curve, poor fit]. With `CCO[C@H]1OC(C(=O)Nc2ccccc2)=C[C@@H](C2CC2)[C@@H]1CCCO` the Potency was inconclusive: 29.1 µM [inhibitor, single point]. With `CCCCCOC(=O)C1=C(C)NC(=O)NC1c1ccc(N(C)C)cc1` (stereo unspecified) the Potency was inconclusive: 10.3 µM [inhibitor, partial curve, poor fit].
